# Measurements published in the supplement of paper PMC3334620.
# In all, about 33,000 sequences were measured (“E-score (-0.5 to 0.5)”: median about -0.053, highest 2% from about 0.37 on). The list shows a part of the results.
# Biological target: Hap1 (UniProt P0CE41)
# Test: PBM E-score (8-mer binding enrichment) (E-score (-0.5 to 0.5)); higher = stronger / more preferred TF binding; most listed sequences are background and not binding sites
# Details: protein concentration: 200 nM; construct: GST-DNA-binding domain
# How it was run: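 Full-length yeast transcription factors or their DNA-binding domains, GST-tagged and expressed with PURExpress, were applied at about 100-200 nM to universal all-10-mer Agilent arrays. These arrays had been made double-stranded by primer extension on fresh or once-stripped slides. Detection used fluorescent anti-GST, normalisation used masliner, and E-scores for ungapped eight-base words pooled with reverse complements came from the Universal PBM Analysis Suite.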
# Chain of UniProt P0CE41 (P0CE41 whole entry): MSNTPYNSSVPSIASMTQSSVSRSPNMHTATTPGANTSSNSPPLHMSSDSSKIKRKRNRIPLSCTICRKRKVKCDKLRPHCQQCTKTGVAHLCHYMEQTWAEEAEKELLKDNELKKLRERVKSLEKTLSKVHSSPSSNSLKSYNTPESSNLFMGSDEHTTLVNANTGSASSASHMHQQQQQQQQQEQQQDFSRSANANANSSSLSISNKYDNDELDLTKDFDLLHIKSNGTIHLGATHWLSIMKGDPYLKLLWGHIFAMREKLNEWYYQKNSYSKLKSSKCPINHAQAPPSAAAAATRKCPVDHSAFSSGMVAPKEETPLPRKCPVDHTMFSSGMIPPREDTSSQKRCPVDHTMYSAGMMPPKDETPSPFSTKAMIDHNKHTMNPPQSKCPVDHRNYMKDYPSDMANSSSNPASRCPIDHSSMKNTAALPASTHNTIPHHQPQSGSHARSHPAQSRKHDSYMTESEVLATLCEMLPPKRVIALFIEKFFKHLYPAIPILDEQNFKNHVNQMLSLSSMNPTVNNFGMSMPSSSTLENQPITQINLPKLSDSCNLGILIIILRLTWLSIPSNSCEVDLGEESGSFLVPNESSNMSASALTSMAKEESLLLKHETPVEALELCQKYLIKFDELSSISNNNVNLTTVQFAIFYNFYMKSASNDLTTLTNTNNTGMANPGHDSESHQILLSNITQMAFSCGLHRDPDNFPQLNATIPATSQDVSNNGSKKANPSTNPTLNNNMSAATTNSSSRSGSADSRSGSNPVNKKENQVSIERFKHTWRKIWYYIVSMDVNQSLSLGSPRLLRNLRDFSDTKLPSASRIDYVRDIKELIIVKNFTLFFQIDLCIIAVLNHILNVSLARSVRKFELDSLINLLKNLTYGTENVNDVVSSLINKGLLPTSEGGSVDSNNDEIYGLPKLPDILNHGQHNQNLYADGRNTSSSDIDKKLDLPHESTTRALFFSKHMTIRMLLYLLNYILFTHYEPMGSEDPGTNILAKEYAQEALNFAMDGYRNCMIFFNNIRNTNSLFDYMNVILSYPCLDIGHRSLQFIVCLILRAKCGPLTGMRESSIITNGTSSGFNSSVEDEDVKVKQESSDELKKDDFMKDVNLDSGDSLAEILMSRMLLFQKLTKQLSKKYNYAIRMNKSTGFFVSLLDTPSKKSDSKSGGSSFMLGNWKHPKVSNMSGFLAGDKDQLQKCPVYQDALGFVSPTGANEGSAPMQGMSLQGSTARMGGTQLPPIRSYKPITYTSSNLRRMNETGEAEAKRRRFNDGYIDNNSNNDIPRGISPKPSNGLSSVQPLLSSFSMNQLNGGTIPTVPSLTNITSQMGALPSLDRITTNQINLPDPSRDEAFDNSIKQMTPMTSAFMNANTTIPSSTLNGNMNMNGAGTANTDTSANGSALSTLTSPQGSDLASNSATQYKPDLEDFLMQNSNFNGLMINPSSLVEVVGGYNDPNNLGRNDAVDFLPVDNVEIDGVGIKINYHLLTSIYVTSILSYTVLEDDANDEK
row,Sequence,PBM E-score
1,ACTCAGCT,-0.171
2,ATCTGCAA,-0.287
3,ACTCTCGC,-0.0418
4,AGATATGG,-0.0259
5,AAAGCCAA,0.00136
6,CCTGTAAA,-0.273
7,CCCTGAAA,-0.24
8,GATCGGGC,0.28
9,AGTTTCCC,-0.0919
10,ACTTTTAA,-0.177
11,CCACGAGC,0.0826
12,CGCGAAGA,0.119
13,CTCAACAA,-0.196
14,ATTCGAGG,-0.221
15,ATCTTTGG,-0.0801
16,GATCCTAA,-0.233
17,CCAGAGGG,0.0653
18,ATATTACA,0.0647
19,AATATAAA,0.137
20,AGTCTAGC,-0.126
21,GACATCCC,0.203
22,CTTGGTAA,-0.161
23,CGGTTGGC,0.171
24,GGCAGAAC,0.103
25,GAATCGTC,0.117

row,Sequence,PBM E-score
1,ACGCACGC,0.197
2,CGTAGCCA,0.00448
3,CAGTGCAG,-0.114
4,CTAGGTGA,-0.335
5,GCGCTTGA,0.0689
6,ACTGAAGG,-0.129
7,AAACCTGA,-0.224
8,AGCCGTCA,0.118
9,CGTACCAG,-0.0509
10,TTGGACAA,-0.155
11,ATGTACAT,-0.0187
12,AACCATGG,-0.0645
13,AGCCACGG,0.129
14,AGATCGTA,-0.0963
15,ATGGTAAT,0.0498
16,CGAGGGCC,0.133
17,AAAGGAGG,-0.217
18,CAATAATC,0.0332
19,ATGATCAT,-0.237
20,GATACACC,0.147
21,AGGCCGGA,0.336
22,CATAGACG,-0.0605
23,ACGAACGT,-0.108
24,GAAGTCTC,0.0327
25,CGGAAACA,0.384

row,Sequence,PBM E-score
1,CGTCAAGA,-0.118
2,TAGACCTA,-0.239
3,CTTCTTTC,-0.159
4,GCGCGAGA,0.17
5,GCTTAAGC,-0.0667
6,CTCGGATA,0.371
7,ATGGGGTC,0.142
8,TGAGGTAA,-0.0381
9,CGTAAACC,0.0738
10,ACGTCACT,0.0437
11,CTCACTTC,-0.188
12,GATTTGGC,-0.0228
13,ATGCCCGA,0.24
14,AGCATAGA,-0.192
15,TAATATTA,0.151
16,CCTCTCGC,-0.0347
17,ATCGCAAT,0.0688
18,CCACATAA,-0.099
19,CGGCGCAA,0.258
20,AACAGTGT,-0.295
21,CGCGACAA,0.116
22,AGCCACAT,-0.237
23,CCCATTTA,-0.104
24,CACAAGCC,-0.0712
25,CGACGATC,0.0288

row,Sequence,PBM E-score
1,GCTATGCA,-0.261
2,ATCGGAGG,0.227
3,ACATGCGG,0.162
4,AGTGGAGG,-0.129
5,GTACAGGA,0.0445
6,ACTGTAAT,-0.073
7,ACGCCGTG,0.113
8,ATTCTCAC,-0.0744
9,CTAGAGCA,-0.213
10,ATCTACTC,0.127
11,AGAGACGC,0.12
12,CGGTTGAA,0.192
13,AGCTACTA,-0.104
14,GACTTATC,0.247
15,CACTTGAC,-0.16
16,CGGTCCAC,0.136
17,GGGCACGA,-0.0376
18,AAGAGCCG,0.31
19,GCCCCGGC,0.25
20,ATCCCGAG,0.284
21,ATTAGGCC,-0.0704
22,GAGGAATA,0.0428
23,CATGTTAA,0.0683
24,GCCGCGAC,0.109
25,AATCATCG,0.156

row,Sequence,PBM E-score
1,GGGCGACA,0.197
2,TAGAATGA,-0.239
3,ACCAGTCC,0.0184
4,ACTTTTTG,-0.164
5,GTACTACA,-0.185
6,GGTGACGA,-0.257
7,CAGCTCCC,-0.147
8,GAACCTCC,-0.0608
9,ATTAAACA,-0.127
10,AATATCTA,-0.199
11,GGAACCTA,0.158
12,CGCCTACG,0.118
13,ACTGAATG,0.0606
14,TGACCAAA,-0.181
15,ATTAGGCG,0.166
16,AATAATCT,0.0101
17,ATGAACGA,-0.167
18,CACCTCAA,-0.134
19,ATGACATC,-0.0132
20,CCCTAGGG,-0.324
21,TTCAGGAA,-0.219
22,CTTGCCAA,-0.194
23,AAAGACCA,-0.182
24,CACATGCC,-0.0842
25,ACTCGCAT,-0.0225

row,Sequence,PBM E-score
1,CTTGGGGA,-0.107
2,CCGTAAGG,0.195
3,GTTAGATA,-0.0416
4,TGACAACA,-0.188
5,ACTAGGCC,0.0926
6,AGTAAAGG,0.0483
7,AGAGGTGG,-0.0944
8,CACGCGAG,0.0375
9,GAGCAGAC,-0.143
10,CACGGTCG,0.0563
11,TCTAGGCA,-0.17
12,CTGTCTAA,0.00177
13,TCCAAGCA,-0.169
14,GATTCCGC,0.268
15,CGGTACCG,0.343
16,ACGGTGGG,-0.0129
17,ATCGTAAC,0.158
18,GGCTTTTA,0.216
19,GCTGGTCC,0.0163
20,AATATGTC,-0.141
21,CGCGAGGA,0.0251
22,ACTTGTAA,-0.227
23,AAATAAGC,-0.036
24,ATTTAGTC,0.00353
25,GCCAACTA,-0.262

row,Sequence,PBM E-score
1,CGAAAAGC,0.0565
2,TGTCGTAA,-0.241
3,CCATTCGC,-0.0998
4,CCCGTGTC,0.164
5,CAGAGGAA,-0.214
6,TGGATACA,-0.288
7,AAAGTAAG,-0.163
8,CATCGGGC,0.24
9,ACGACTAA,-0.152
10,GCCAGCAA,-0.158
11,GGCGGACC,0.35
12,CCCGTTGA,-0.00757
13,CTAAACAC,-0.0466
14,AGGGATCG,-0.0685
15,CACCTCAG,-0.254
16,CGTGAGGC,-0.0632
17,CAAGGCCA,-0.0751
18,GGCGGGAA,0.0695
19,CTCATCCC,-0.157
20,ACGACTAT,-0.101
21,ACCGCCCT,-0.13
22,CAGATTGC,-0.175
